For the data set, the system named is ATP. The experiment in a line: switch fluorescence ratio, 500 uM ATP over buffer (Cy3 cluster intensity, sum of 5 cycles each) (fold (ratio)); higher = stronger signal-on switching upon ATP binding; sequences stand for … in TCGTCGGCAGCGTCAGATGTGTATAAGAGACAGTTTTTTTTTTTTTTTTTTTTTTTTT…TC. The settings on record: aptamer strand: ATP DNA aptamer (quencher-CACCTGGGGGAGTATTGCGGAGGAAGG + anchor), 100 nM annealed; ATP concentration: 500 uM; one replicate. In outline: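 Imaging in selection buffer was followed by imaging after 15 min with 500 uM ATP at 22 °C, for Cy3-labelled switching-strand clusters annealed to 100 nM quencher-labelled ATP aptamer on a modified Illumina MiSeq flow-cell. Five of these buffer/ATP cycles ran, separated by NaOH stripping and re-annealing. The fluorescence ratio per cluster is summed target-cycle over summed buffer-cycle Cy3 intensity, averaged per switch-domain sequence; clusters outside 100-1000 RFU were removed.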

Values marked as one replicate rest on one cluster of the flow cell; about a third of the high ones do not repeat.
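Note: ATP exposure 15 min at 22 °C before imaging.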

In the case of AATTAAATTT, the switch fluorescence ratio worked out at 1.05.
For the sequence TGGTCTGCAG, the switch fluorescence ratio is 1.01.
The value for GGCCAAGACT was 1.06; that for TCAGTGAGTC was 1.04.
Take AAAAAAGAGT: the switch fluorescence ratio was found to be 0.977.
To ATCTGTATTT belongs 1; to ATTGTGGTC, 1.02; to ATGGTCACGG, 0.992.
To GCCGGACGTG belongs 1.03; to GAATACTTGC, 1.05.
To GAGATCATAG belongs 1.02; to TGAAAAGGAT, 0.989.
Take GAGGTTACTT: the switch fluorescence ratio was 0.993.
To GGCGCTTAA belongs 0.974; to TGTAGCTCGA, 0.995.
To AGGGCGCGCG belongs 1.02; to TATAGACGTC, 1.01; to GTAACGAGGT, 1.02.
To TGAATGGGAC belongs 1.02.
As to CGCCCTATTC, the switch fluorescence ratio came to 1.22.
For AATTTAGAAA, the switch fluorescence ratio was found to be 0.936.
To CTCCAGGCTG belongs 1.78.
Consider ATTGCGGGCG, for which the switch fluorescence ratio was determined as 1.03.
The value for CGAACAATCG was 1.01; that for GACGGGTAAG was 0.989.
To GTTCGTGGCA belongs 1.04; to GGATTCGGGC, 1.01.
To CCAAGCTTGG belongs 0.972.
Turning to TATATGTTTC, the switch fluorescence ratio worked out at 1.05.
The value for AGCATTCACG was 1.09.
In the case of AACAGATGTC, the switch fluorescence ratio is 0.907.
To GCTCAGATGG belongs 0.997; to GGTGAAATGG, 1.02.
To TGATACAAC belongs 1.04.
To GCGTGCATGG belongs 1.01; to ACCACTAGGT, 1.04; to TACTCTGTAC, 1.47.
Turning to GACGGGTTCT, the switch fluorescence ratio worked out at 0.982.
To TATTTTGTTG belongs 1.01.
To TCATTGGGGC belongs 0.916.
GATCTGGTGC: the switch fluorescence ratio was determined as 1.
The value for GGTTACAGCG was 0.992; that for TAGTAGAA was 0.998.
The value for TGTTCGGGAA was 1.
To AGGCTAGTCC belongs 0.908.
Turning to CGGTTTGGG, the switch fluorescence ratio worked out at 0.968.
The value for ACCAAAATT was 1.04.
The value for TCGTCGCTTG was 0.992; that for CTGTGCGAAA was 1.02; that for CACGGGTTGT was 1.04.
As for ACTCGGCTGG, the switch fluorescence ratio is 0.944.
To TTTACCATAT belongs 1.02.
The value for TTGTGATG was 0.95; that for TTTGTCCATT was 1.01.
The value for GCGGCCAATG was 0.995.
Turning to AGTGGGCGG, the switch fluorescence ratio was determined as 0.988.
To AAGAGGATCA belongs 1.
Regarding GGGTGTTGCA, the switch fluorescence ratio stood at 1.01.
As to CGAAGGCTAT, the switch fluorescence ratio amounted to 1.16.
The value for GGATGGACCG was 1.08; that for AGGGCCACAG was 0.989.
To TGAAACGTTA belongs 1.09.
To TAAACATTTT belongs 1.06; to TATTAGGATT, 0.993.
CTAAGACATT: the switch fluorescence ratio turned out to be 0.988.
To TAGAAAGAT belongs 1; to TTGGGGTTC, 1.05.
In the case of GCATGAGTTC, the switch fluorescence ratio stood at 1.01.
For CTTTGGAAGA, the switch fluorescence ratio turned out to be 0.958.
For TGGGTAGAG, the switch fluorescence ratio was 1.
Regarding GGTTCAAACT, the switch fluorescence ratio was determined as 1.01.
To GACTATGGGC belongs 0.991; to AGGGGGAGT, 1.02.
The value for AAGGTTGGGC was 1.03; that for GAGGGCTCCA was 1.
For the sequence GTTGTTTCCA, the switch fluorescence ratio came out at 0.985.
The value for TGAAAAGGCT was 1.06.
To TCGCGCTTGT belongs 1.76; to CACCGGCCAT, 1.12; to CGATCTGTCT, 0.974.
To ACACGCGTAA belongs 1.06.
For CTGTGCCCT, the switch fluorescence ratio was 1.01.
The value for CCCTGCGGCG was 1.06.
The value for CATAAATTA was 0.939.
To GCAAACACAT belongs 0.976; to TACGAGATTC, 1.07; to TCCGTGGCTA, 2.61.
With AGCCGGATAC, the switch fluorescence ratio is 1.43.
To CATGATCTGA belongs 0.972; to TGCGCCTGA, 1.02; to GATTGCTGGG, 0.981.
To ATGCGGTTC belongs 1.05; to TCGTAGCCCT, 1.04.
To TGTGAGCGTG belongs 1.01.
With CTTCAGAACG, the switch fluorescence ratio was 1.09.
The value for CGCCGTGAGC was 1.17; that for AAGCAGTTCT was 1.02.
To CCCCCGAGCT belongs 1.3; to TTGGTCGCTC, 1.01.
The value for TCAATGTCTG was 1.02; that for AACTTTAAGA was 1.01.
Turning to TCATAGATAC, the switch fluorescence ratio stood at 1.25.
With TAGTGGAGCC, the switch fluorescence ratio is 1.02.
To GTGGTACACA belongs 1.01; to GAGCGGCAGT, 1.02.
For GTGGGTCCGT, the switch fluorescence ratio was 0.979.
To ACATCGTACC belongs 1.05; to CTGACACAGA, 1.05; to ATGATTGCG, 1.
The value for GGGCCAGGCA was 1.05; that for CGTGCTGAC was 1.06.
Take GCAAACTGCT: the switch fluorescence ratio was 1.
The value for CCGTGCGATG was 2.69; that for GGATCTGAAA was 1.03.
The value for GTATTGTAGA was 1.01; that for CGGACAATCT was 1.14; that for CGTAGTGGCA was 0.943.
To TTCAAATTGA belongs 1.28; to CCGTATCAGT, 1.05; to AACTTGCTGG, 0.996.

For the origin of these results see the supplement of paper PMC10126150.
